# From the supplement of paper PMC8728848
# This is one part of the list.
# B1: PX14375C-bth-509-28-509 (Bacteroides thetaiotaomicron) (protein)
# chain: RSPQGQFTEDDNPNALVNGKIYNVYTMMRSFDITAGTPAIAIHYLRSEDSEKGSIPSDGSDVAEMYDDFLYTPTNGLLGSYWGKNYAIIYQCNDILDAIAEKETAGQTETEDIINKGEASFFRAYCYFNLVRAFGEVPLVTYKINDASEANIPKTTADKIYEQIDTDLKTAEESLPETWSTEYTGRLTWGAARSLHARTYMMRSDWDNMYKASTDVINKGLYNLKTPYNEIFTDDGENSGGSIFELQCTATAALPQSDVIGSQFCEVQGVRGAGQWDLGWGWHMATQLMADAYETGDPRKNATLLYFRKTDDEPITPENTNEPYGESPISPAMGAYFNKKAYTDPALRKEYTNKGFWVNIRLIRYSDVVLMAAEAANEKNIPGEAVDYLEMVRARARGTNTNILPKITTNDQGELREAIRHERRVELGLEPDRFYDLVRWGIASEVLHAAGKVNYQDKNALLPLPQSEIDKSKGVLVQNPDY
# Key:
# Assay in all cases: glycan array binding signal (z-score within array); higher = stronger binding
# Conditions in all cases: glycan notation: IUPAC condensed, linker removed
# Gal(b1-4)Glc = target: Gal(b1-4)Glc
# In short: (§1)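 Glycan array data came from 3228 arrays in the Consortium for Functional Glycomics database, and only arrays with an available protein sequence were kept. Glycan names were put into IUPAC-condensed notation, and columns mapping to the same glycan were averaged. The binding signal is a within-array Z-score, averaged across arrays of one protein sequence run at different concentrations or buffers and across linkers. A negative Z-score can be read as non-binding.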
# Gal(b1-4)Glc6S = target: Gal(b1-4)Glc6S
# In short: as §1
# Gal(b1-4)GlcNAc = target: Gal(b1-4)GlcNAc
# In short: as §1
# [1] = target: Gal(b1-4)GlcNAc(a1-6)Gal(b1-4)GlcNAc
# In short: as §1
# Gal(b1-4)GlcNAc(b1-2)Man = target: Gal(b1-4)GlcNAc(b1-2)Man
# In short: as §1
# [2] = target: Gal(b1-4)GlcNAc(b1-2)Man(a1-3)Man(b1-4)GlcNAc(b1-4)GlcNAc
# In short: as §1
# [3] = target: Gal(b1-4)GlcNAc(b1-2)Man(a1-3)[Gal(b1-4)GlcNAc(b1-2)Man(a1-6)]Man(b1-4)GlcNAc(b1-4)GlcNAc
# In short: as §1
# [4] = target: Gal(b1-4)GlcNAc(b1-2)Man(a1-3)[Gal(b1-4)GlcNAc(b1-2)Man(a1-6)]Man(b1-4)GlcNAc(b1-4)[Fuc(a1-6)]GlcNAc
# In short: as §1
# [5] = target: Gal(b1-4)GlcNAc(b1-2)Man(a1-3)[Gal(b1-4)GlcNAc(b1-2)Man(a1-6)][Gal(b1-4)GlcNAc(b1-4)]Man(b1-4)GlcNAc(b1-4)[Fuc(a1-6)]GlcNAc
# In short: as §1
# [6] = target: Gal(b1-4)GlcNAc(b1-2)Man(a1-3)[Gal(b1-4)GlcNAc(b1-2)Man(a1-6)][GlcNAc(b1-4)]Man(b1-4)GlcNAc(b1-4)[Fuc(a1-6)]GlcNAc
# In short: as §1
# [7] = target: Gal(b1-4)GlcNAc(b1-2)Man(a1-3)[GlcNAc(b1-2)Man(a1-6)]Man(b1-4)GlcNAc(b1-4)GlcNAc
# In short: as §1
# [8] = target: Gal(b1-4)GlcNAc(b1-2)Man(a1-3)[GlcNAc(b1-4)][Gal(b1-4)GlcNAc(b1-2)Man(a1-6)]Man(b1-4)GlcNAc(b1-4)GlcNAc
# In short: as §1
# [9] = target: Gal(b1-4)GlcNAc(b1-2)Man(a1-3)[Man(a1-6)]Man(b1-4)GlcNAc(b1-4)GlcNAc
# In short: as §1
# [10] = target: Gal(b1-4)GlcNAc(b1-2)Man(a1-6)Man(b1-4)GlcNAc(b1-4)GlcNAc
# In short: as §1
# [11] = target: Gal(b1-4)GlcNAc(b1-2)Man(a1-6)[GlcNAc(b1-2)Man(a1-3)]Man(b1-4)GlcNAc(b1-4)GlcNAc
# In short: as §1
# [12] = target: Gal(b1-4)GlcNAc(b1-2)Man(a1-6)[Man(a1-3)]Man(b1-4)GlcNAc(b1-4)GlcNAc
# In short: as §1
# [13] = target: Gal(b1-4)GlcNAc(b1-2)[Gal(b1-4)GlcNAc(b1-4)]Man(a1-3)[Gal(b1-4)GlcNAc(b1-2)Man(a1-6)]Man(b1-4)GlcNAc(b1-4)GlcNAc
# In short: as §1
# [14] = target: Gal(b1-4)GlcNAc(b1-2)[Gal(b1-4)GlcNAc(b1-4)]Man(a1-3)[Gal(b1-4)GlcNAc(b1-2)[Gal(b1-4)GlcNAc(b1-6)]Man(a1-6)]Man(b1-4)GlcNAc(b1-4)GlcNAc
# In short: as §1
# [15] = target: Gal(b1-4)GlcNAc(b1-2)[Gal(b1-4)GlcNAc(b1-4)]Man(a1-3)[GlcNAc(b1-4)][Gal(b1-4)GlcNAc(b1-2)Man(a1-6)]Man(b1-4)GlcNAc(b1-4)GlcNAc
# In short: as §1
# [16] = target: Gal(b1-4)GlcNAc(b1-2)[Gal(b1-4)GlcNAc(b1-4)]Man(a1-3)[GlcNAc(b1-4)][Gal(b1-4)GlcNAc(b1-2)[Gal(b1-4)GlcNAc(b1-6)]Man(a1-6)]Man(b1-4)GlcNAc(b1-4)GlcNAc
# In short: as §1
# [17] = target: Gal(b1-4)GlcNAc(b1-2)[Gal(b1-4)GlcNAc(b1-6)]Man(a1-6)[Gal(b1-4)GlcNAc(b1-2)Man(a1-3)]Man(b1-4)GlcNAc(b1-4)GlcNAc
# In short: as §1
# [18] = target: Gal(b1-4)GlcNAc(b1-2)[Gal(b1-4)GlcNAc(b1-6)]Man(a1-6)[Gal(b1-4)GlcNAc(b1-2)Man(a1-3)]Man(b1-4)GlcNAc(b1-4)[Fuc(a1-6)]GlcNAc
# In short: as §1
# [19] = target: Gal(b1-4)GlcNAc(b1-2)[Gal(b1-4)GlcNAc(b1-6)]Man(a1-6)[GlcNAc(b1-4)][Gal(b1-4)GlcNAc(b1-2)Man(a1-3)]Man(b1-4)GlcNAc(b1-4)GlcNAc
# In short: as §1
# [20] = target: Gal(b1-4)GlcNAc(b1-2)[Gal(b1-4)GlcNAc(b1-6)]Man(a1-6)[GlcNAc(b1-4)][Gal(b1-4)GlcNAc(b1-2)[Gal(b1-4)GlcNAc(b1-4)]Man(a1-3)]Man(b1-4)GlcNAc(b1-4)[Fuc(a1-6)]GlcNAc
# In short: as §1
# [21] = target: Gal(b1-4)GlcNAc(b1-3)Gal(b1-3)GalNAc
# In short: as §1
# [22] = target: Gal(b1-4)GlcNAc(b1-3)Gal(b1-3)GlcNAc
# In short: as §1
# [23] = target: Gal(b1-4)GlcNAc(b1-3)Gal(b1-4)Glc
# In short: as §1
# [24] = target: Gal(b1-4)GlcNAc(b1-3)Gal(b1-4)GlcNAc
# In short: as §1
# [25] = target: Gal(b1-4)GlcNAc(b1-3)Gal(b1-4)GlcNAc(b1-2)Man(a1-3)[Gal(b1-4)GlcNAc(b1-3)Gal(b1-4)GlcNAc(b1-2)Man(a1-6)]Man(b1-4)GlcNAc(b1-4)GlcNAc
# In short: as §1
# [26] = target: Gal(b1-4)GlcNAc(b1-3)Gal(b1-4)GlcNAc(b1-2)Man(a1-3)[Gal(b1-4)GlcNAc(b1-3)Gal(b1-4)GlcNAc(b1-2)Man(a1-6)]Man(b1-4)GlcNAc(b1-4)[Fuc(a1-6)]GlcNAc
# In short: as §1
# [27] = target: Gal(b1-4)GlcNAc(b1-3)Gal(b1-4)GlcNAc(b1-2)[Gal(b1-4)GlcNAc(b1-3)Gal(b1-4)GlcNAc(b1-6)]Man(a1-6)[Gal(b1-4)GlcNAc(b1-3)Gal(b1-4)GlcNAc(b1-2)Man(a1-3)]Man(b1-4)GlcNAc(b1-4)GlcNAc
# In short: as §1
# [28] = target: Gal(b1-4)GlcNAc(b1-3)Gal(b1-4)GlcNAc(b1-2)[Gal(b1-4)GlcNAc(b1-3)Gal(b1-4)GlcNAc(b1-6)]Man(a1-6)[Gal(b1-4)GlcNAc(b1-3)Gal(b1-4)GlcNAc(b1-2)Man(a1-3)]Man(b1-4)GlcNAc(b1-4)[Fuc(a1-6)]GlcNAc
# In short: as §1
# [29] = target: Gal(b1-4)GlcNAc(b1-3)Gal(b1-4)GlcNAc(b1-3)Gal(b1-4)GlcNAc
# In short: as §1
# [30] = target: Gal(b1-4)GlcNAc(b1-3)Gal(b1-4)GlcNAc(b1-3)Gal(b1-4)GlcNAc(b1-2)Man(a1-3)[Gal(b1-4)GlcNAc(b1-3)Gal(b1-4)GlcNAc(b1-3)Gal(b1-4)GlcNAc(b1-2)Man(a1-6)]Man(b1-4)GlcNAc(b1-4)GlcNAc
# In short: as §1
# [31] = target: Gal(b1-4)GlcNAc(b1-3)Gal(b1-4)GlcNAc(b1-3)Gal(b1-4)GlcNAc(b1-2)Man(a1-3)[Gal(b1-4)GlcNAc(b1-3)Gal(b1-4)GlcNAc(b1-3)Gal(b1-4)GlcNAc(b1-2)Man(a1-6)]Man(b1-4)GlcNAc(b1-4)[Fuc(a1-6)]GlcNAc
# In short: as §1
# [32] = target: Gal(b1-4)GlcNAc(b1-3)Gal(b1-4)GlcNAc(b1-3)Gal(b1-4)GlcNAc(b1-2)[Gal(b1-4)GlcNAc(b1-3)Gal(b1-4)GlcNAc(b1-3)Gal(b1-4)GlcNAc(b1-6)]Man(a1-6)[Gal(b1-4)GlcNAc(b1-3)Gal(b1-4)GlcNAc(b1-3)Gal(b1-4)GlcNAc(b1-2)Man(a1-3)]Man(b1-4)GlcNAc(b1-4)[Fuc(a1-6)]GlcNAc
# In short: as §1
# [33] = target: Gal(b1-4)GlcNAc(b1-3)Gal(b1-4)GlcNAc(b1-3)Gal(b1-4)GlcNAc(b1-3)Gal(b1-4)GlcNAc(b1-2)Man(a1-3)[Gal(b1-4)GlcNAc(b1-3)Gal(b1-4)GlcNAc(b1-3)Gal(b1-4)GlcNAc(b1-3)Gal(b1-4)GlcNAc(b1-2)Man(a1-6)]Man(b1-4)GlcNAc(b1-4)GlcNAc
# In short: as §1
binder,measurement,setting,value
B1,glycan array binding signal (z-score),Gal(b1-4)Glc,-0.374
same,glycan array binding signal (z-score),Gal(b1-4)Glc6S,0.533
same,glycan array binding signal (z-score),Gal(b1-4)GlcNAc,0.233
same,glycan array binding signal (z-score),[1],-0.071
same,glycan array binding signal (z-score),Gal(b1-4)GlcNAc(b1-2)Man,-0.043
same,glycan array binding signal (z-score),[2],-0.289
same,glycan array binding signal (z-score),[3],6.16
same,glycan array binding signal (z-score),[4],2.04
same,glycan array binding signal (z-score),[5],-0.181
same,glycan array binding signal (z-score),[6],-0.247
same,glycan array binding signal (z-score),[7],0.099
same,glycan array binding signal (z-score),[8],-0.007
same,glycan array binding signal (z-score),[9],1.69
same,glycan array binding signal (z-score),[10],0.732
same,glycan array binding signal (z-score),[11],-0.268
same,glycan array binding signal (z-score),[12],-0.165
same,glycan array binding signal (z-score),[13],-0.406
same,glycan array binding signal (z-score),[14],1.28
same,glycan array binding signal (z-score),[15],-0.296
same,glycan array binding signal (z-score),[16],-0.214
same,glycan array binding signal (z-score),[17],-0.111
same,glycan array binding signal (z-score),[18],-0.108
same,glycan array binding signal (z-score),[19],0.464
same,glycan array binding signal (z-score),[20],-0.158
same,glycan array binding signal (z-score),[21],-0.287
same,glycan array binding signal (z-score),[22],-0.374
same,glycan array binding signal (z-score),[23],-0.402
same,glycan array binding signal (z-score),[24],-0.247
same,glycan array binding signal (z-score),[25],4.35
same,glycan array binding signal (z-score),[26],1.31
same,glycan array binding signal (z-score),[27],-0.127
same,glycan array binding signal (z-score),[28],12.3
same,glycan array binding signal (z-score),[29],-0.324
same,glycan array binding signal (z-score),[30],0.774
same,glycan array binding signal (z-score),[31],0.071
same,glycan array binding signal (z-score),[32],2.29
same,glycan array binding signal (z-score),[33],0.053
